# From PubChem BioAssay AID463173 (ICCB-Longwood Screening Facility, Harvard Medical School, 2010)
# Out of some 52,000 compounds screened, about 1,700 (3.3%) were called active. No stated cut-off is given here; in the data, active means survival mostly below about 52% (no sharp cut-off); inactive means mostly above about 56%. The list shows a part of the results.
# Tested on: Wild type
# Assay: S. aureus survival, RN4220 and DeltatarO strains – OD600, teichoic acid synthesis inhibitors, primary screen (AID 463173)
# Conditions: S. aureus RN4220 wild type/DeltatarO growth, OD600, 18 h, stronger effect = lower value, screened at 18.75 µg/mL (by protocol)
row,SMILES,survival
1,O=C(NCc1ccccc1)c1ccc(NC(=O)N2CCSc3ncccc32)cc1,inactive: 119%
2,COc1cc(OC)c(NC(=O)c2cnn(-c3cccc(Cl)c3C)c2C2CCN(C(=O)OC(C)(C)C)CC2)cc1Cl,inactive: 53%
3,COc1ccc(-n2cc(-c3ccccc3)c3c(NCc4cccc(Cl)c4)ncnc32)cc1,inactive: 85%
4,Cc1ccc(NC(=O)c2cn(-c3ccccc3)nc2-c2ccccc2)cc1,inactive: 110%
5,CCCCn1c(SCC(=O)Nc2cccc(OC)c2)nc2ccsc2c1=O,inactive: 159%
6,Cc1ccc(C2=NN(CC(=O)NC(C)c3ccccc3)C(=O)CC2)cc1 (stereo not drawn),inactive: 73%
7,COc1ccc(-c2cn3nc(N4CCC(C(=O)NCc5ccc(F)cc5)CC4)sc3n2)cc1,inactive: 78%
8,COc1ccc(NC(=O)C2CCC(CNS(=O)(=O)c3csc(C(N)=O)c3)CC2)cc1 (stereo not drawn),inactive: 85%
9,CC(C)c1ccc(Nc2c(-c3ccc(N4CCOCC4)cc3)nc3ncccn23)cc1,inactive: 86%
10,CCOC(=O)c1c(NC(=O)COc2cccc(C)c2C)sc2c1CCCCC2,inactive: 73%
11,Cc1ccc(CSc2oc(-c3ccco3)nc2S(=O)(=O)c2ccc(Cl)cc2)cc1,inactive: 74%
12,CCOC(=O)c1cccc(NC(=O)c2cc(S(=O)(=O)N3CCCC3)cn2C)c1,inactive: 78%
13,COc1ccc(-c2onc(C)c2C)cc1S(=O)(=O)Nc1ccc(OC(F)(F)F)cc1,inactive: 63%
14,COC(=O)c1cc2sc(C)cc2n1Cc1ccccc1,inactive: 83%
15,CCCOC(=O)c1ccc(NC(=O)Cn2nnc3sc4c(c3c2=O)CCC(C(C)(C)C)C4)cc1 (stereo not drawn),inactive: 91%
16,Cc1ccc(CNC(=O)CSc2ccc(-c3sc(-c4ccccc4)nc3C)nn2)cc1,inactive: 122%
17,CCOC(=O)CNC(=O)c1cc2c(=O)n(CC)c3ccccc3c2s1,inactive: 88%
18,COc1ccc(NC(=O)c2ccco2)cc1NC(=O)C(C)Oc1ccc(Cl)cc1Cl (stereo not drawn),active: 6%
19,CCOc1ccc(CCNC(=O)CN2C(=O)c3cccnc3Oc3ccc(C)cc32)cc1OCC,inactive: 80%
20,COc1cccc(CNS(=O)(=O)c2c(C)nc3scc(C)n3c2=O)c1,inactive: 131%
21,CC(=O)c1cc(-c2ccc(F)cc2)n(CC(=O)NC2CCCCCC2)c1C,inactive: 81%
22,CCCOc1ccc(/C=C/C(=O)Nc2sc3c(c2C(=O)OCC)CCC(C)C3)cc1OC (stereo not drawn),inactive: 66%

row,SMILES,survival
1,O=S(=O)(c1ccc(Br)cc1)c1nc(-c2ccco2)oc1SCc1ccccc1F,inactive: 65%
2,O=C(Nc1cccc(C(F)(F)F)c1)c1cc2nc(-c3ccccc3)cc(C(F)(F)F)n2n1,inactive: 71%
3,CCCOc1ccc(-c2cccc(NS(=O)(=O)c3cccs3)c2)nn1,inactive: 71%
4,O=C(Nc1ccc(NC(=O)c2cccs2)cc1)c1cccs1,inactive: 113%
5,CCOc1ccccc1CNC(=O)CCCn1c(=O)c2cccn2c2cccnc21,inactive: 109%
6,CCN1/C(=C(\C#N)c2nc(C#N)c(C#N)nc2N2CCOCC2)Nc2ccccc21,inactive: 107%
7,COc1ccc(-c2cccc(NS(=O)(=O)c3cccs3)c2)nn1,inactive: 73%
8,Clc1ccc(N2CCN(Cc3nnc(-c4ccc5c(c4)OCO5)o3)CC2)cc1,inactive: 83%
9,O=C1CSC(N(c2ccccc2)c2ccccc2)=N1,inactive: 99%
10,COc1ccc(NC(=O)CC2Nc3cccc4cccc(c34)NC2=O)cc1 (stereo not drawn),inactive: 67%
11,Cn1nnnc1SCC(=O)N1CCCc2ccccc21,inactive: 106%
12,COc1ccc(NC(=O)C2=C(C)Nc3c(C(=O)Nc4ccc(C)cc4)cnn3C2c2cccc(Cl)c2)cc1 (stereo not drawn),inactive: 73%
13,CCCCN(CC)C(=O)c1c[nH]c2ccc(S(=O)(=O)Nc3cccc(OC)c3)cc2c1=O,inactive: 81%
14,CC(=O)N1c2ccccc2CC1C(=O)N1CCN(c2cccc(C)c2C)CC1 (stereo not drawn),inactive: 73%
15,Cc1oc2ccc(O)c(CN3CCOCC3)c2c1C(=O)Nc1ccc(C(C)C)cc1,inactive: 110%
16,Cc1ccc2onc(CC(=O)N3CCN(c4ccccc4F)CC3)c2c1,inactive: 96%
17,COc1ccc(-c2cc(C)no2)cc1S(=O)(=O)N1CCN(c2ccc(C(C)=O)cc2)CC1,inactive: 77%
18,O=C(CCCn1c(=O)c2cccn2c2ccccc21)Nc1cccc(Cl)c1,inactive: 42%
19,Clc1ccccc1CSc1nncn2c1cc1occc12,inactive: 86%
20,Cc1ccc2oc(-c3cccc(NC(=O)c4cccc5c(Br)cccc45)c3)nc2c1,inactive: 161%
21,CCOC(=O)Cn1c2[n+](c3ccccc31)CC(O)CS2 (stereo not drawn),inactive: 102%
22,COc1ccc(C(=O)NCC(c2cccnc2)N2CCN(c3ccccc3F)CC2)cc1OC (stereo not drawn),inactive: 83%

row,SMILES,survival
1,COC(=O)c1c(C)sc(-c2c(-c3ccc(F)cc3)[nH]c3[nH]c(=O)[nH]c(=O)c23)c1O,inactive: 115%
2,Cc1ccc(NC(=O)C2CCN(S(=O)(=O)c3cccs3)CC2)cc1,inactive: 74%
3,CCCc1nn2c(=O)cc(COC(=O)c3ccccc3NC(=O)C3CCCCC3)nc2s1,inactive: 73%
4,O=C(CCCC(=O)Nc1nccs1)Nc1nccs1,inactive: 111%
5,CCC(=O)N1CCc2cc(S(=O)(=O)CCC(=O)NCc3ccccc3Cl)ccc21,inactive: 86%
6,COc1ccc(CCNC(=O)CCc2c(C)nc3c(-c4ccc(F)cc4)c(C)nn3c2C)cc1OC,inactive: 137%
7,Cc1ccc(-n2c(SCc3nc(-c4ccc(Cl)cc4)no3)nnc2-c2ccncc2)cc1,inactive: 50%
8,CCc1ccc(NC(=O)CN(c2ccc(C)cc2)S(=O)(=O)c2c(C)nn(C)c2C)cc1,inactive: 76%
9,COCCCNC(=O)N1CCN(c2nnc(C)c3c(C)n(-c4ccc(Cl)cc4)nc23)CC1,inactive: 72%
10,CC1=C(C(=O)OC2CCCCCC2)C(c2ccccc2Cl)CC(=O)N1 (stereo not drawn),inactive: 80%
11,COc1ccc(Cn2c(C(=O)O)c(CNCCc3cccs3)c3ccc(OC)cc32)cc1,inactive: 87%
12,CCOc1cccc(CC(=O)N2CCc3c([nH]c4ccccc34)C2c2ccc(OC)cc2)c1OCC (stereo not drawn),inactive: 88%
13,Cc1ccccc1CN1C(=O)c2ccccc2S(=O)c2ccc(C(=O)NCc3ccccc3)cc21 (stereo not drawn),inactive: 77%
14,Cc1oc2ncn(C)c(=O)c2c1C(=O)N1CCN(c2ccc(Cl)cc2)CC1,inactive: 55%
15,COc1cccc(CNCCCSc2nnnn2C)c1,inactive: 107%
16,Cc1nn(C)c2c1c(-c1ccccc1)cc(=O)n2Cc1c(F)cccc1Cl,active: -6%
17,O=C(c1cc(-c2ccc(Cl)cc2)on1)N(Cc1ccc(F)cc1)Cc1ccco1,inactive: 77%
18,Cc1ccccc1Nc1c(-c2ccccc2O)nc2sccn12,inactive: 90%
19,O=C1c2oc3ccccc3c(=O)c2C(c2cccc(O)c2)N1Cc1ccc(F)cc1 (stereo not drawn),inactive: 82%
20,CCOc1ccc(N(CC(=O)Nc2ccc3c(c2)OCO3)S(=O)(=O)c2ccccc2)cc1,inactive: 93%
21,CC(C)Sc1ncc(Cl)c(C(=O)Nc2c(C(=O)Nc3ccccc3)oc3ccccc23)n1,inactive: 94%
22,Cc1cccc2cc(CN(Cc3ccco3)C(=O)N3CCOCC3)c(Cl)nc12,inactive: 108%

row,SMILES,survival
1,CCN(c1ccccc1)S(=O)(=O)c1nnc(NC(=O)C(C)Oc2ccccc2)s1 (stereo not drawn),inactive: 55%
2,CCOC(=O)Cc1ccc(NC(=O)N2CCC(CN3CCC(C)CC3)CC2)cc1,inactive: 81%
3,COc1ccc(N(C(=O)c2ccc(C)cc2)S(=O)(=O)c2ccc(Cl)cc2)cc1,inactive: 84%
4,CCc1cccc(NC(=O)c2sc3nc[nH]c(=O)c3c2C)c1,inactive: 75%
5,CCc1ccc(NS(=O)(=O)c2ccc3[nH]cc(C(=O)N4CCCCCC4)c(=O)c3c2)cc1,inactive: 78%
6,O=C1CN(C(=O)c2ccc(S(=O)(=O)N3CCCC3)cc2)C(c2ccc(F)cc2)c2cc(F)ccc2N1 (stereo not drawn),inactive: 83%
7,COc1cc(C2C(C(=O)Nc3ccc(C)cc3C)=C(C)Nc3nc(SCc4ccccc4)nn32)cc(OC)c1OC (stereo not drawn),inactive: 91%
8,Cc1ccc(CNC(=O)c2cnn3c(C)c(Cc4c(F)cccc4Cl)c(C)nc23)cc1,inactive: 65%
9,Cc1ccc2oc3c(c(=O)c2c1)C(c1cccc(O)c1)N(CCCN1CCOCC1)C3=O (stereo not drawn),inactive: 71%
10,CCOc1ccc(CCNC(=O)c2ccc(C)c(-n3c(C)nc4cccnc43)c2)cc1OCC,inactive: 70%
11,Cc1cccc(-c2nnc(SCC(=O)NC3CCCCC3)o2)c1,inactive: 83%
12,CCOc1ccccc1NC(=O)c1cc2ccc3cccnc3c2[nH]1,active: 10%
13,CCN(Cc1ccccc1)C(=O)c1cc2ccc3cccnc3c2[nH]1,inactive: 22%
14,Cc1cc(Br)ccc1NC(=O)CN1C(=O)c2cccnc2Sc2ccccc21,inactive: 85%
15,COc1ccc(N(Cc2cccs2)C(=O)COc2ccc([N+](=O)[O-])cc2)cc1,inactive: 85%
16,CCOc1ccc(C(=O)Nc2cc(-c3ccccc3)no2)cc1,inactive: 86%
17,O=C(CCn1cnc2onc(-c3ccc(F)cc3)c2c1=O)N1CCN(c2cccc(Cl)c2)CC1,inactive: 67%
18,O=C(Nc1ccccc1C(F)(F)F)N1CCN(c2ccc3nnc(-c4ccc(F)cc4)n3n2)CC1,inactive: 69%
19,CCC(C(=O)NCCCN(CC)CC)n1ncn2c(cc3occc32)c1=O (stereo not drawn),inactive: 80%
20,CCOc1ccc(CNC(=O)C2Cc3cc(S(=O)(=O)N4CCCCCC4)ccc3N2C(C)=O)cc1 (stereo not drawn),inactive: 90%
21,CN1CC=C2C(C#N)=C(N)C(C#N)(C#N)C(CCc3ccccc3)C2C1 (stereo not drawn),inactive: 104%
22,Cc1ccc(NC(=O)Cn2c(-c3nonc3N)nc3ccccc32)cc1Cl,inactive: 92%
